Results: article PMC5556061 (Scientific Reports, 2017)
Residue numbers refer to the chain shown, from its start. Results are given in words; binding and its absence hold for the method and conditions named. For some of these results: In cells and extracts the contact can be indirect. Some binding calls cover weakened binding; strength is not graded here. For some of these results: Tags and fused reporters may be left off the sequences shown.

Protein sequences, listed by entry. Tags and fused reporters are not part of them.
UniProt P34152: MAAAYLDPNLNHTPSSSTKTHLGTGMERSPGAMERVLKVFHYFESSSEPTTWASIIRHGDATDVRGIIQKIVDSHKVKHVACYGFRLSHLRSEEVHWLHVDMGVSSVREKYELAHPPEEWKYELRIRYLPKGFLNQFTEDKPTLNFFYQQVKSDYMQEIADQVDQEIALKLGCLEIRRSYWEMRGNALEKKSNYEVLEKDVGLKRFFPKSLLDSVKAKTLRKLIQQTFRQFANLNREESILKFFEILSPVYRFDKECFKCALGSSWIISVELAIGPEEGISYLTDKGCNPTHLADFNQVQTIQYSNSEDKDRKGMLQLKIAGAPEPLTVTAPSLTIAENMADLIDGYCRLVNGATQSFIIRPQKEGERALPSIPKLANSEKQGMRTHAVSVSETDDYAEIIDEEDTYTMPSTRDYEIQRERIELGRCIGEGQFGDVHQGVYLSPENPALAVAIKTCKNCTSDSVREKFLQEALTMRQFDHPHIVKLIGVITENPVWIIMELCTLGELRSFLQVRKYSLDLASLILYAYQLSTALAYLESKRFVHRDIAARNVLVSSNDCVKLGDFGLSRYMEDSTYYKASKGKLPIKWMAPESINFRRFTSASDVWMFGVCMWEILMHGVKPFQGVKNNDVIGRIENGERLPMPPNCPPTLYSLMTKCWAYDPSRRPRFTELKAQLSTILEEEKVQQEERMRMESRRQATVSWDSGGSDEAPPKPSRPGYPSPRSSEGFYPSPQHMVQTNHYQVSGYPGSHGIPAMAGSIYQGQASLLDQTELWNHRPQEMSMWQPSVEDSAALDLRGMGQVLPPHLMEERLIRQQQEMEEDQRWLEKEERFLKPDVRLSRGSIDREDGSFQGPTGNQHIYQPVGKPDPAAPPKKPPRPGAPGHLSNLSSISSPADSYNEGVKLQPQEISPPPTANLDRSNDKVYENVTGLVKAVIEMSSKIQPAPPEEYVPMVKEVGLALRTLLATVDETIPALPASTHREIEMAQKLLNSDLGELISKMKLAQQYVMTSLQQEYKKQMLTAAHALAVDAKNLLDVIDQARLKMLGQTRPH

Legend:
[1] = target: T1, endogenous CAS (mouse embryonic fibroblasts) (mouse (endogenous in MEFs)) (UniProt Q61140); assay: co-IP; CAS immunoprecipitated with anti-CAS antibody and protein-A sepharose from lysates of MEFs and of Src-transformed (SrcF) MEFs, with or without 5 µM saracatinib for 3 h; blots for FAK and Vinculin
T1 sequence: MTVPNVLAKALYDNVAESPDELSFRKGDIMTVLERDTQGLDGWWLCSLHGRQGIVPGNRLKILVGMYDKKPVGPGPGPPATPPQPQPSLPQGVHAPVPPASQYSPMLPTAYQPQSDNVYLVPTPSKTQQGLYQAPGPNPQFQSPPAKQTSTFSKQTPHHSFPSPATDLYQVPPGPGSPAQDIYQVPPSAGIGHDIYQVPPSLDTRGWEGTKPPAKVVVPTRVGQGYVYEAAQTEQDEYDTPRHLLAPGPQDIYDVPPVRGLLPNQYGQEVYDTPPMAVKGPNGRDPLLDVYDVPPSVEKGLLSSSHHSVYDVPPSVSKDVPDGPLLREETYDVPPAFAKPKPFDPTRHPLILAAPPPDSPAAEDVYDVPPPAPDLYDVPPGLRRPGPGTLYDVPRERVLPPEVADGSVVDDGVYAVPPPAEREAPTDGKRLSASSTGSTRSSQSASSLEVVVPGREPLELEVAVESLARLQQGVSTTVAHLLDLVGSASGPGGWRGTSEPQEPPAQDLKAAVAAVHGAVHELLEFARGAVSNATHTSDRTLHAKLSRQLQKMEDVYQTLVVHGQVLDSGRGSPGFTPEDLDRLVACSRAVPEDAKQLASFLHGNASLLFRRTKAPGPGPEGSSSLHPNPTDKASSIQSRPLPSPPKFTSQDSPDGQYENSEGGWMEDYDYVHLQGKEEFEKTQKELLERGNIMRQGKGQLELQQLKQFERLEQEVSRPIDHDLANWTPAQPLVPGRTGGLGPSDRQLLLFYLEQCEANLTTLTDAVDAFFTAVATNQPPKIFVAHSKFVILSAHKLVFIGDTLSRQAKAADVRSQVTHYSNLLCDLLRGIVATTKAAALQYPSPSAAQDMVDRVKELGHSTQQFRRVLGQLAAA

[2] = target: T2, GST-fused CAS SH3 domain (mouse) (UniProt Q61140); assay: ELISA; phage ELISA: GST-CAS SH3 domain or its variants immobilised in 96-well plate (100 µl of 50 µg/ml; 5 µg per well), dilution series of phage stocks in TBS with 0.5% Tween 20, anti-M13-HRP; relative affinities from phage number at 50% saturation; only the target purified
T2 sequence: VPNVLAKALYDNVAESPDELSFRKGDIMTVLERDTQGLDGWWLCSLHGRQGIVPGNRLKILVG

[3] = target: T2, GST-fused CAS SH3 domain (mouse); assay: pull-down; 20 µg GST-CAS SH3 variants on glutathione agarose incubated 2 h at 4 °C with lysates of transfected MDA-MB-231 cells; anti-Flag blot; only the target purified
[4] = target: T3, GST-fused CAS SH3 domain Y12E (mouse) (UniProt Q61140); assay: as above
T3 sequence: T2 sequence with Y10E

Flag-DOK7 (human) = target: T4, Flag-DOK7 (human) (UniProt Q18PE1); assay: co-IP; anti-FLAG M2 affinity gel on Triton lysates (750 µg protein) of transfected MDA-MB-231 cells, overnight at 4 °C; anti-CAS blot
T4 sequence: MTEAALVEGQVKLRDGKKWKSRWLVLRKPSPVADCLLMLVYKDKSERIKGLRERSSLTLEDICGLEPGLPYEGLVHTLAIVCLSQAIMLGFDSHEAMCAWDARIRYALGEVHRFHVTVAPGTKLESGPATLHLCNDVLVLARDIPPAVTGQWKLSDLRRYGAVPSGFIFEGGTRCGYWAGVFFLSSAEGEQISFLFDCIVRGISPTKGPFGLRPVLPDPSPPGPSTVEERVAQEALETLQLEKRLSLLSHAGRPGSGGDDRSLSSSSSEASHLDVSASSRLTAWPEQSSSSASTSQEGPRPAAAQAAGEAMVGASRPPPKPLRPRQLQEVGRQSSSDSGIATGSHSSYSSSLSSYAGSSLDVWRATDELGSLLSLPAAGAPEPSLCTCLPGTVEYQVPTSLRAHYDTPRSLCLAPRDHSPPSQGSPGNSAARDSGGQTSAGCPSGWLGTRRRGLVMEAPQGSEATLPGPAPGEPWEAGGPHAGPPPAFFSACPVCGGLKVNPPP

[5] = target: T5, Flag-GLIS2 (not stated (cDNA from the BLM melanoma cell line)) (UniProt Q9BZE0); assay: as above
T5 sequence: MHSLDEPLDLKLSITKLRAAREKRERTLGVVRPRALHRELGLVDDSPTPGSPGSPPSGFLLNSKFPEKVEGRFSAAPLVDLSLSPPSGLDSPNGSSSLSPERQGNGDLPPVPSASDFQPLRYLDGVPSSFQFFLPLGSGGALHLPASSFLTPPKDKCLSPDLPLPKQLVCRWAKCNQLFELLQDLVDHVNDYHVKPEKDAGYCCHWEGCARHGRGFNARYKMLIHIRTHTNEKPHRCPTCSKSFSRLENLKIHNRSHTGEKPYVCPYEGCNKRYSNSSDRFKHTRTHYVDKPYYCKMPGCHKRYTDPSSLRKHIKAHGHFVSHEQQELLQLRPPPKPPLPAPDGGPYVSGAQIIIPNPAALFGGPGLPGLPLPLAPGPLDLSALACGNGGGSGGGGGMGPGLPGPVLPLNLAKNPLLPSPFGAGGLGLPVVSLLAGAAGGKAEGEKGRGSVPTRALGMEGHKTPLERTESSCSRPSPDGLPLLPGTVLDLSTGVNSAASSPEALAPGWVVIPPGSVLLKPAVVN

[6] = target: T3, GST-fused CAS SH3 domain Y12E (mouse); assay: ELISA; phage ELISA: GST-CAS SH3 domain or its variants immobilised in 96-well plate (100 µl of 50 µg/ml; 5 µg per well), dilution series of phage stocks in TBS with 0.5% Tween 20, anti-M13-HRP; relative affinities from phage number at 50% saturation; only the target purified

Question: For “FAK (mouse embryonic fibroblasts) (from UniProt P34152 1-1052)”, which binding [1] is on record?
Answer: binds

Question: For FHAPPSKPPLPK [phage-displayed peptide clone 1 (…)], which binding [2] is on record?
Answer: binds

B1: Vinculin (mouse embryonic fibroblasts) (protein, UniProt Q64727 1-1066)
chain: MPVFHTRTIESILEPVAQQISHLVIMHEEGEVDGKAIPDLTAPVAAVQAAVSNLVRVGKETVQTTEDQILKRDMPPAFIKVENACTKLVQAAQMLQSDPYSVPARDYLIDGSRGILSGTSDLLLTFDEAEVRKIIRVCKGILEYLTVAEVVETMEDLVTYTKNLGPGMTKMAKMIDERQQELTHQEHRVMLVNSMNTVKELLPVLISAMKIFVTTKNSKNQGIEEALKNRNFTVEKMSAEINEIIRVLQLTSWDEDAWASKDTEAMKRALASIDSKLNQAKGWLRDPNASPGDAGEQAIRQILDEAGKVGELCAGKERREILGTCKMLGQMTDQVADLRARGQGASPVAMQKAQQVSQGLDVLTAKVENAARKLEAMTNSKQSIAKKIDAAQNWLADPNGGPEGEEQIRGALAEARKIAELCDDPKERDDILRSLGEIAALTSKLGDLRRQGKGDSPEARALAKQVATALQNLQTKTNRAVANSRPAKAAVHLEGKIEQAQRWIDNPTVDDRGVGQAAIRGLVAEGHRLANVMMGPYRQDLLAKCDRVDQLTAQLADLAARGEGESPQARALASQLQDSLKDLKAQMQEAMTQEVSDVFSDTTTPIKLLAVAATAPPDAPNREEVFDERAANFENHSGRLGATAEKAAAVGTANKSTVEGIQASVKTARELTPQVISAARILLRNPGNQAAYEHFETMKNQWIDNVEKMTGLVDEAIDTKSLLDASEEAIKKDLDKCKVAMANIQPQMLVAGATSIARRANRILLVAKREVENSEDPKFREAVKAASDELSKTISPMVMDAKAVAGNISDPGLQKSFLDSGYRILGAVAKVREAFQPQEPDFPPPPPDLEQLRLTDELAPPKPPLPEGEVPPPRPPPPEEKDEEFPEQKAGEVINQPMMMAARQLHDEARKWSSKGNDIIAAAKRMALLMAEMSRLVRGGSGTKRALIQCAKDIAKASDEVTRLAKEVAKQCTDKRIRTNLLQVCERIPTISTQLKILSTVKATMLGRTNISDEESEQATEMLVHNAQNLMQSVKETVREAEAASIKIRTDAGFTLRWVRKTPWYQ
Question: With B1 as the molecule, how does the binding [1] read?
Answer: binds

B2: Flag-DOK7 (protein, UniProt Q18PE1 1-504)
chain: T4 sequence
Question: For B2, which binding [3] is on record?
Answer: binds

Question: And the binding [4]?
Answer: no binding

B3: Flag-GLIS2 (protein, UniProt Q9BZE0 1-524)
chain: T5 sequence
Question: How did the binding [3] turn out when B3 was run?
Answer: binds

Question: And the binding [4]?
Answer: no binding

B4: CAS/BCAR1 (in MDA-MB-231 cells) (protein, UniProt P56945 1-870)
chain: MNHLNVLAKALYDNVAESPDELSFRKGDIMTVLEQDTQGLDGWWLCSLHGRQGIVPGNRLKILVGMYDKKPAGPGPGPPATPAQPQPGLHAPAPPASQYTPMLPNTYQPQPDSVYLVPTPSKAQQGLYQVPGPSPQFQSPPAKQTSTFSKQTPHHPFPSPATDLYQVPPGPGGPAQDIYQVPPSAGMGHDIYQVPPSMDTRSWEGTKPPAKVVVPTRVGQGYVYEAAQPEQDEYDIPRHLLAPGPQDIYDVPPVRGLLPSQYGQEVYDTPPMAVKGPNGRDPLLEVYDVPPSVEKGLPPSNHHAVYDVPPSVSKDVPDGPLLREETYDVPPAFAKAKPFDPARTPLVLAAPPPDSPPAEDVYDVPPPAPDLYDVPPGLRRPGPGTLYDVPRERVLPPEVADGGVVDSGVYAVPPPAEREAPAEGKRLSASSTGSTRSSQSASSLEVAGPGREPLELEVAVEALARLQQGVSATVAHLLDLAGSAGATGSWRSPSEPQEPLVQDLQAAVAAVQSAVHELLEFARSAVGNAAHTSDRALHAKLSRQLQKMEDVHQTLVAHGQALDAGRGGSGATLEDLDRLVACSRAVPEDAKQLASFLHGNASLLFRRTKATAPGPEGGGTLHPNPTDKTSSIQSRPLPSPPKFTSQDSPDGQYENSEGGWMEDYDYVHLQGKEEFEKTQKELLEKGSITRQGKSQLELQQLKQFERLEQEVSRPIDHDLANWTPAQPLAPGRTGGLGPSDRQLLLFYLEQCEANLTTLTNAVDAFFTAVATNQPPKIFVAHSKFVILSAHKLVFIGDTLSRQAKAADVRSQVTHYSNLLCDLLRGIVATTKAAALQYPSPSAAQDMVERVKELGHSTQQFRRVLGQLAAA
Question: Which results are given for B4?
Answer: binding (Flag-DOK7 (human)): binds; binding [5]: binds

B5: phage-displayed peptide clone 10 (TMTPPPKPPRLI) (peptide)
peptide: TMTPPPKPPRLI
notes: 12-residue peptide selected from a degenerate library; also called phage clone 10; source: M13 phage stock (Ph.D.-12 Phage Display Peptide Library, New England Biolabs), selected by panning
Question: Which binding [2] does the source give for B5 here?
Answer: binds

Question: And the binding [6]?
Answer: no binding

B6: phage-displayed peptide clone 16 (AHTPPPKPTRPP) (peptide)
peptide: AHTPPPKPTRPP
notes: 12-residue peptide selected from a degenerate library; also called phage clone 16; source: M13 phage stock (Ph.D.-12 Phage Display Peptide Library, New England Biolabs), selected by panning
Question: How did the binding [2] turn out when B6 was run?
Answer: binds

Question: And the binding [6]?
Answer: no binding
